The record followed here is patent US20220324876A1, “4-SUBSTITUTED PYRANO[3,4,b]PYRAZINE KAPPA AGONISTS FOR TREATING DRUG DEPENDENCY” (The Rockefeller University, priority 2019, published 2022).

This assay addresses kappa opioid receptor (KOP-R, hOPRK1) (Homo sapiens, UniProt P41145). Briefly: biochemical.
Setting [1] is: Binding IC50 (nM), Table D, 1.0 nM [3H]U69,593, 60 min 30° C.

Where two headings read alike, the source gives them in different places.

UniProt P41145, sequence (P41145 whole entry): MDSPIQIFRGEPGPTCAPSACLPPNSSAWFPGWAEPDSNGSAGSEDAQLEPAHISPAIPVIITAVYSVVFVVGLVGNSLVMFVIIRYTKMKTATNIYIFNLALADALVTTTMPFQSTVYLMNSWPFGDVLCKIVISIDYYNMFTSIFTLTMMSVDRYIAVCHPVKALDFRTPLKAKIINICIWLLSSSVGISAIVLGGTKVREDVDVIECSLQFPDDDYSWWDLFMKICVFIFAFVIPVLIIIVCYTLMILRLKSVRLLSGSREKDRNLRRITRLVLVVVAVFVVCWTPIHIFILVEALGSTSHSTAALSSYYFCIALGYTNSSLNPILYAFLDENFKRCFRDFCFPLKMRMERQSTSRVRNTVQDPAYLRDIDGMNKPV

`O=C(Cc1ccc(Cl)c(Cl)c1)N1CCN(Cc2ncccn2)[C@@H]2COC[C@H](N3CCCC3)[C@H]21` (racemic) [rac-5A69]: under setting [1], the IC50 is 191 nM. In other words, the sub-micromolar range.

Molecule `O=C(Cc1ccc(Cl)c(Cl)c1)N1CCN(CCCO)[C@@H]2COC[C@H](N3CCCC3)[C@H]21` (racemic) [rac-5A75] had an IC50 under setting [1] of 60 nM.

The molecule `Cn1cc(CN2CCN(C(=O)Cc3ccc(Cl)c(Cl)c3)[C@H]3[C@H]2COC[C@@H]3N2CCCC2)cn1` (racemic) [rac-5A79] came in with an IC50 of 177 nM.

For the molecule `O=C(Cc1ccc(Cl)c(Cl)c1)N1CCN(Cc2ccccn2)[C@@H]2COC[C@H](N3CCCC3)[C@H]21` (racemic) [rac-5A80], the IC50 under setting [1] came out at 67 nM.

The molecule `O=C(Cc1ccc(Cl)c(Cl)c1)N1CCN(Cc2cccnc2)[C@@H]2COC[C@H](N3CCCC3)[C@H]21` (racemic) [rac-5A81] registered a half-inhibitory concentration (IC50) under setting [1] of 18.7 nM. Compared with the last molecule, the IC50 is about 3.6-fold lower.

`O=C(Cc1ccc(Cl)c(Cl)c1)N1CCN(CC2CCOCC2)[C@@H]2COC[C@H](N3CCCC3)[C@H]21` (racemic) [rac-5A84] registered an IC50 of 423 nM.

In turn, `O=C(Cc1ccc(Cl)c(Cl)c1)N1CCN(CC2CCS(=O)(=O)CC2)[C@@H]2COC[C@H](N3CCCC3)[C@H]21` (racemic) [rac-5A85] gave an IC50 of 1070 nM.

In turn, `N#CCN1CCN(C(=O)Cc2ccc(Cl)c(Cl)c2)[C@H]2[C@H]1COC[C@@H]2N1CCCC1` (racemic) [rac-5A87] yielded an IC50 under setting [1] of 16 nM.

Consider `O=C(O)CN1CCN(C(=O)Cc2ccc(Cl)c(Cl)c2)[C@H]2[C@H]1COC[C@@H]2N1CCCC1` (racemic) [rac-5A88], for which inhibition was half-maximal at 2000 nM (IC50).

Turning to `CS(=O)(=O)CCN1CCN(C(=O)Cc2ccc(Cl)c(Cl)c2)[C@H]2[C@H]1COC[C@@H]2N1CCCC1` (racemic) [rac-5A94], the IC50 under setting [1] stood at 177 nM.

As to `O=C(Cc1ccc(Cl)c(Cl)c1)N1CCN(C(=O)c2ccon2)[C@@H]2COC[C@H](N3CCCC3)[C@H]21` (racemic) [rac-5A97], the IC50 under setting [1] worked out at 12 nM.

Regarding `O=C(Cc1ccc(Cl)c(Cl)c1)N1CCN(Cc2ncon2)[C@@H]2COC[C@H](N3CCCC3)[C@H]21` (racemic) [rac-5A100], the IC50 under setting [1] came out at 22 nM.

Molecule `NC(=O)CN1CCN(C(=O)Cc2ccc(Cl)c(Cl)c2)[C@H]2[C@H]1COC[C@@H]2N1CCCC1` (racemic) [rac-5A102] yielded an IC50 under setting [1] of 90 nM.

Turning to `Cn1nccc1CN1CCN(C(=O)Cc2ccc(Cl)c(Cl)c2)[C@H]2[C@H]1COC[C@@H]2N1CCCC1` (racemic) [rac-5A104], the half-maximal inhibitory concentration (IC50) under setting [1] worked out at 78 nM.

As to `Cc1noc(CN2CCN(C(=O)Cc3ccc(Cl)c(Cl)c3)[C@H]3[C@H]2COC[C@@H]3N2CCCC2)n1` (racemic) [rac-5A105], the IC50 under setting [1] came out at 37 nM. Against the preceding molecule, the IC50 is about 2.1-fold lower.

As to `O=C(Cc1ccc(Cl)c(Cl)c1)N1CCN(Cc2cn[nH]c2)[C@@H]2COC[C@H](N3CCCC3)[C@H]21` (racemic) [rac-5A107], the IC50 under setting [1] turned out to be 11 nM. Against the preceding molecule, the IC50 is about 3.4-fold lower.

As to `O=C(Cc1ccc(Cl)c(Cl)c1)N1CCN(Cc2ccn[nH]2)[C@@H]2COC[C@H](N3CCCC3)[C@H]21` (racemic) [rac-5A108], the 50% inhibitory concentration (IC50) under setting [1] is 16 nM.

As to `O=C(Cc1ccc(Cl)c(Cl)c1)N1CCN(Cc2cocn2)[C@@H]2COC[C@H](N3CCCC3)[C@H]21` (racemic) [rac-5A109], under setting [1], the concentration for half-maximal inhibition (IC50) stood at 61 nM.

Consider `O=C(Cc1ccc(Cl)c(Cl)c1)N1CCN(Cc2ncco2)[C@@H]2COC[C@H](N3CCCC3)[C@H]21` (racemic) [rac-5A111], for which the half-maximal inhibitory concentration (IC50) under setting [1] is 6.5 nM.

Under setting [1], `CCNC(=O)CN1CCN(C(=O)Cc2ccc(Cl)c(Cl)c2)[C@H]2[C@H]1COC[C@@H]2N1CCCC1` (racemic) [rac-5A112] registered a half-inhibitory concentration (IC50) of 254 nM.

On to `O=C(CN1CCN(C(=O)Cc2ccc(Cl)c(Cl)c2)[C@H]2[C@H]1COC[C@@H]2N1CCCC1)N1CCCC1` (racemic) [rac-5A113], for which the concentration for half-maximal inhibition (IC50) under setting [1] came out at 198 nM.

As to `Cc1nnc(CN2CCN(C(=O)Cc3ccc(Cl)c(Cl)c3)[C@H]3[C@H]2COC[C@@H]3N2CCCC2)o1` (racemic) [rac-5A118], the IC50 under setting [1] was 76 nM.

Usually IC50 stands for the concentration needed to halve the response being measured.
